Measurements as given in PubChem BioAssay AID588855 (National Center for Advancing Translational Sciences (NCATS), 2011).
Screen size: about 410,000 compounds; about 5,000 (1.2%) were called active. Inconclusive results, whose numbers are uncertain, are shown with a selection of clear calls. Calls come from the whole dose curve; as a rule, active = well fitted inhibition curve with a large enough effect; inconclusive = small, poorly fitted or top-dose-only effect; inactive = no such curve, though single readings can be large or run the other way. Where the call is inconclusive, the potency comes from a doubtful curve fit.

assay: qHTS for Inhibitors of TGF-b; conditions: HepG2 CAGA-GFP TGF-b/SMAD3 reporter, GFP fluorescence, 18 h, TGF-beta stimulated, 500 pg/mL final; series mostly up to 46.1 µM; activity, negative = inhibition: at the top concentration; note: nearly all actives have a fitted effect of over 65% in size
How it was run: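 First, reporter cells (HEPG2 CAGA-GFP) rested 2 h at 37 degrees C. Next, compounds were pinned in and TGF-beta added to 500 pg/mL final. After 18 h, GFP was imaged per cell and summed per well.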
% is set by controls: 0 for no effect and ±100 for the full control effect; potency is the fitted concentration of half-maximal effect; tags give direction and shape of the fitted curve.

Row | Compound | Potency | activity, negative = inhibition
1 | COc1ccccc1N1CCN(CCCNC(=O)c2cnn(-c3ccccc3Cl)c2C2CCN(C(=O)OC(C)(C)C)CC2)CC1 | inconclusive: 17.8 µM [inhibitor, partial curve, poor fit] | 
2 | O=C(C1CCC(CNc2c(N3CCCC3)c(=O)c2=O)CC1)N1CCc2ccccc21 (stereo unspecified) | inconclusive: 7.08 µM [inhibitor, partial curve] | 
3 | O=C(N/N=C\c1ccncc1)c1ccccc1O |  | inactive: -2.79%
4 | Cc1ccc(NC2=NCC(Cc3ccc(Br)cc3)S2)cc1 (stereo unspecified) | inconclusive: 35.5 µM [inhibitor, single point] | 
5 | Cc1nc2cc(-c3ccc(Cl)cc3)nn2c(NCCN(C)C)c1C |  | inactive: -9.89%
6 | CN(C)S(=O)(=O)N(CC(=O)Nc1ccc(F)c(F)c1)c1ccccc1 |  | inactive: -12.1%
7 | COc1ccc(CCNC(=O)c2cnc3sc(N4CCCCCC4)nn3c2=O)cc1OC |  | inactive: -10.2%
8 | Cc1ccc(C(=O)N/C(=C/c2ccc(-c3cccc([N+](=O)[O-])c3)o2)C(=O)NC(C)(C)C)cc1 |  | inactive: -5.3%
9 | C/C(CC(=O)Nc1ccc(OCc2ccccc2)cc1)=N\NC(=O)C(=O)Nc1ccc(C)c(Cl)c1 |  | inactive: -5.3%
10 | O=C(Nc1ccc(Cl)c(C(F)(F)F)c1)[C@@H]1CC=C[C@@H]2CCN(C3CC3)C(=O)[C@@H]21 | inconclusive: 10 µM [inhibitor, partial curve] | 
11 | Cc1ccc(C(c2nnnn2C2CCCC2)N2CCc3ccccc32)cc1 (stereo unspecified) | inconclusive: 7.08 µM [inhibitor, partial curve, poor fit] | 
12 | CN(C1=NS(=O)(=O)N=C(N(C)c2ccccc2)O1)c1ccccc1 | inconclusive: 17.8 µM [inhibitor, single point] | 
13 | O=C(NC(=S)Nc1ccc(F)c(Cl)c1)C1CC1 | inconclusive: 7.94 µM [inhibitor, partial curve] | 
14 | Cc1noc(C)c1S(=O)(=O)N(C)C[C@H]1Oc2ccc(NC(=O)Cn3cnnn3)cc2C(=O)N([C@H](C)CO)C[C@@H]1C | inconclusive: 12.6 µM [inhibitor, partial curve] | 
15 | Oc1ccc(Nc2nnc(-c3ccc(O)cc3)c3ccccc23)cc1 | inconclusive: 35.5 µM [inhibitor, partial curve, poor fit] | 
16 | Cc1ccccc1NC(=S)N=Nc1c(O)n(C)c2ccc(S(=O)(=O)N3CCOCC3)cc12 | active: 5.62 µM | 
17 | N#C/C(=C\C1CC2C=CC1C2)c1nc2ccccc2[nH]1 (stereo unspecified) |  | inactive: -24%
18 | CCOC(=O)c1c(C)[nH]c(C(=O)C(C)Sc2ccc(Cl)cc2)c1C (stereo unspecified) | inconclusive: 35.5 µM [inhibitor, partial curve, poor fit] | 
19 | CC1CCC(=C(C#N)c2nc(-c3cc4ccccc4oc3=O)cs2)CC1 (stereo unspecified) |  | inactive: 0.979%
20 | O=C(Nc1ccc(NC(=O)c2cccs2)c(Cl)c1)c1ccco1 |  | inactive: -17.6%
21 | Cc1oc(-c2cccc(Cl)c2)nc1Cn1c(SCc2ccccc2F)nc2ccncc21 | inconclusive: 14.1 µM [inhibitor, single point] | 
22 | O=C(O)COc1ccccc1/C=N/NC(=O)c1cc(-c2ccc(Cl)cc2)nc2ccccc12 |  | inactive: 0%
23 | O=C(CSCc1c(Cl)cccc1Cl)Nc1ccc2c(c1)OCO2 |  | inactive: -2.43%

Row | Compound | Potency | activity, negative = inhibition
24 | NNC(=S)NCc1ccccc1 | inconclusive: 7.08 µM [inhibitor, partial curve] | 
25 | CCCOc1ccc(/C=C/C(=O)N2CCN(C(=O)c3ccco3)CC2)cc1OC |  | inactive: -1.97%
26 | O=C(CCSc1ccccn1)c1ccccc1 | inconclusive: 31.6 µM [inhibitor, single point] | 
27 | CN(C)c1ccc(Cc2cc3c(O)ccc(O)c3cc(Cc3ccc(N(C)C)cc3)c2=O)cc1 | inconclusive: 35.5 µM [inhibitor, single point] | 
28 | Fc1ccc(NC(=S)N2CCN(c3ncccn3)CC2)cc1 |  | inactive: 2.76%
29 | COC(=O)c1sccc1S(=O)(=O)N(CC(=O)NCc1ccc(F)cc1)c1ccc(Cl)cc1 | inconclusive: 8.91 µM [inhibitor, partial curve] | 
30 | CCOc1ccc(OCC)c(NC(=O)Nc2ccc3c(c2)N(C)C(=O)CS3)c1 | inconclusive: 15.8 µM [inhibitor, single point] | 
31 | COc1ccc(CNCc2ccc(OC)c3ccccc23)cc1 |  | inactive: 15.8%
32 | Cc1ccc(S(=O)(=O)N2CCN(C(=O)c3cc(C4CC4)nc4c3cnn4C(C)C)CC2)cc1 | inconclusive: 35.5 µM [inhibitor, single point] | 
33 | OC(COc1ccc(Cl)cc1Cl)CN1CCc2ccccc2C1 (stereo unspecified) | inconclusive: 25.1 µM [inhibitor, single point] | 
34 | Oc1ccc(C2C[C@H]3CC[C@@H]2C3)cc1O (stereo partly specified) |  | inactive: -26%
35 | Cc1cc(NC(=O)c2cc(-c3cccs3)nc3ccccc23)no1 |  | inactive: 2.17%
36 | C=CCNC(=S)NN=C1CCCCCCC1 | inconclusive: 10 µM [inhibitor, partial curve, poor fit] | 
37 | CC(Oc1ccc(Br)cc1)C(=O)Nc1cc(Cl)ccc1N1CCN(C)CC1 (stereo unspecified) | inconclusive: 35.5 µM [inhibitor, single point] | 
38 | COc1ccc(C2C(C#N)=C(N)Oc3cc(O)ccc32)cc1Cl (stereo unspecified) | inconclusive: 28.2 µM [inhibitor, single point] | 
39 | COC(=O)/C(=C\C(=O)c1ccc([N+](=O)[O-])cc1)Nc1ccc(OC)cc1 | inconclusive: 6.31 µM [inhibitor, single point] | 
40 | Cc1nc(-c2cn[nH]c2-c2ccc(O)cc2O)cs1 | inconclusive: 22.4 µM [inhibitor, partial curve, poor fit] | 
41 | O=C(c1ccccc1)c1ccc(OCC(O)CNCc2cccc(Cl)c2)cc1 (stereo unspecified) | inconclusive: 35.5 µM [inhibitor, single point] | 
42 | COc1ccc(Cn2nnc3c(=O)[nH]c(C4CCN(C(=O)c5ccc(C)cc5)CC4)nc32)cc1OC |  | inactive: -10.1%
43 | O=C(Cc1ccccc1)NCC(=O)N1CCN(c2ccc(F)cc2)CC1 |  | inactive: 19.5%
44 | Cc1ccc(-c2cc(C(F)F)n3ncc(C(=O)N4CCN(c5ccccn5)CC4)c3n2)cc1 |  | inactive: -12.9%
45 | O=C(NCCc1ccccc1)c1ncn[nH]1 | inconclusive: 22.4 µM [inhibitor, single point] | 
46 | CS(=O)(=O)c1nc(-c2ccccc2)cc(C(F)(F)F)n1 | inconclusive: 3.55 µM [inhibitor, single point] | 
